Reference: PMC6633398
These are yes or no findings as the source states them, for the method shown. Binding seen in cells or lysates may run through a third protein. Some results given as binding are weak or reduced against the parent protein; the word gives no strength.

Protein sequences, listed by entry. Tags and fused reporters are not part of them. Lines headed by an entry give the natural chain unless they say otherwise; changes in a name come on top.
UniProt O43681: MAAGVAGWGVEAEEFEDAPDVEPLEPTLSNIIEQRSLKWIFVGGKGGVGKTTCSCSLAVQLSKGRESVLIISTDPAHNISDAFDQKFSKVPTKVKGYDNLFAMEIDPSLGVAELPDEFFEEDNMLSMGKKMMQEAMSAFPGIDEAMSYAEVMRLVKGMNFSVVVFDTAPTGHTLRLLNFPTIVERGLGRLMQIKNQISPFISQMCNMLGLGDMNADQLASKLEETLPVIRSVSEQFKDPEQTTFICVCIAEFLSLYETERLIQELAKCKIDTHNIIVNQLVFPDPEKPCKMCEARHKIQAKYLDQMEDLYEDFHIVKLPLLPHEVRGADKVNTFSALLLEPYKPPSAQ

Legend:
[1] = biological target: c-Myc–TRC40_(D74E/L190K/I193K), charge-inverted triple mutant (UniProt O43681); assay: co-IP; c-Myc–TRC40 variants expressed in transfected HEK293 cells; precipitated with anti-c-Myc agarose from the cytosolic fraction (180,000 g, 1 h) in the absence of detergent; IP buffer 50 mM HEPES, 150 mM NaCl, 1.5 mM MgCl2, 1 mM EGTA, pH 7.4; 2.5 h; endogenous TA proteins detected by western blot
[2] = biological target: c-Myc–TRC40_(D74E), ATPase-impaired trap mutant of TRC40 (UniProt O43681); assay: as above

binding [1]: binds
binding [2]: binds
B1: CASP (encoded by CUX1; isoform 4) (protein, UniProt Q13948 1-678)
chain: MAANVGSMFQYWKRFDLQQLQRELDATATVLANRQDESEQSRKRLIEQSREFKKNTPEDLRKQVAPLLKSFQGEIDALSKRSKEAEAAFLNVYKRLIDVPDPVPALDLGQQLQLKVQRLHDIETENQKLRETLEEYNKEFAEVKNQEVTIKALKEKIREYEQTLKNQAETIALEKEQKLQNDFAEKERKLQETQMSTTSKLEEAEHKVQSLQTALEKTRTELFDLKTKYDEETTAKADEIEMIMTDLERANQRAEVAQREAETLREQLSSANHSLQLASQIQKAPDVEQAIEVLTRSSLEVELAAKEREIAQLVEDVQRLQASLTKLRENSASQISQLEQQLSAKNSTLKQLEEKLKGQADYEEVKKELNILKSMEFAPSEGAGTQDAAKPLEVLLLEKNRSLQSENAALRISNSDLSGRCAELQVRITEAVATATEQRELIARLEQDLSIIQSIQRPDAEGAAEHRLEKIPEPIKEATALFYGPAAPASGALPEGQVDSLLSIISSQRERFRARNQELEAENRLAQHTLQALQSELDSLRADNIKLFEKIKFLQSYPGRGSGSDDTELRYSSQYEERLDPFSSFSKRERQRKYLSLSPWDKATLSMGRLVLSNKMARTIGFFYTLFLHCLVFLVLYKLAWSESMERDCATFCAKKFADHLHKFHENDNGAAAGDLWQ
